Measured values as given in the supplement of paper PMC12217912.
The list shows a part of the results. The full chains were built here from the parent and the listed change. Values near 0.05 are background.

B1: TEV protease; numbered along this chain (parent)
chain: MGESLFKGPRDYNPISSSICHLTNESDGHTTSLYGIGFGPFIITNKHLFRRNNGTLVVQSLHGVFKVKDTTTLQQHLVDGRDMIIIRMPKDFPPFPQKLKFREPQREERICLVTTNFQTKSMSSMVSDTSCTFPSGDGIFWKHWIQTKDGQCGSPLVSTRDGFIVGIHSASNFTNTNNYFTSVPKNFMELLTNQEAQQWVSGWRLNADSVLWGGHKVFMVKPEEPFQPVKEATQL

Variants of: B1
Experiment: raw area under fraction-flipped curve 0-4 h after induction (AUC4h, not background-subtracted), DNA-recorder readout of cleavage of the substrate (dimensionless); higher = more cleavage of the substrate by the protease variant
Conditions: temperature: 34 °C; time window: 0-4 h after rhamnose induction
Method: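 In vivo DNA recorder in E. coli TOP10(DE3) ΔrhaA at 34 °C. Each TEVp single-site mutant (parent TEVp 0) is paired with a single-site variant of the 7-mer TEVs (canonical ENLYFQ|S). The substrate sits between flexible linkers in a Bxb1-sfGFP-TEVs-SsrA fusion, so cleavage stabilises Bxb1 and speeds flipping of a recombination array, read by NGS. The value is the raw area under the fraction-flipped curve over 0-4 h after rhamnose induction (AUC4h), with ≥20 reads per time point. It is not background-subtracted; inactive controls average about 0.047.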
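Further: Bxb1 expression induced with 0.2% (w/v) L-rhamnose at OD600 near 0.5, cultures sampled hourly, flipped fraction per protease–substrate barcode pair counted by paired-end Illumina sequencing.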

| Variant | area with substrate ENAYFQS | area with substrate ENCYFQS | area with substrate ENDYFQS | area with substrate ENEYFQS | area with substrate ENFYFQS | area with substrate ENGYFQS | area with substrate ENHYFQS | area with substrate ENMYFQS | area with substrate ENNYFQS | area with substrate ENPYFQS | area with substrate ENQYFQS | area with substrate ENRYFQS | area with substrate ENSYFQS | area with substrate ENVYFQS | area with substrate ENWYFQS | area with substrate ENYYFQS | area with substrate ENIYFQS | area with substrate ENTYFQS | area with substrate ENKYFQS |
| --- | --- | --- | --- | --- | --- | --- | --- | --- | --- | --- | --- | --- | --- | --- | --- | --- | --- | --- | --- |
| R204G | 0.0622 | 0.0617 | 0.0675 | 0.0555 | 0.0699 | 0.0696 | 0.0526 | 0.0574 | 0.0651 | 0.062 | 0.0624 | 0.0623 | 0.0474 | 0.0699 | 0.0658 | 0.0732 | – | – | – |
| R204M | 0.0535 | 0.0651 | 0.0665 | 0.0597 | 0.046 | 0.064 | 0.0587 | 0.0925 | 0.0627 | 0.0545 | 0.0557 | 0.0532 | 0.0617 | 0.0821 | 0.0549 | – | 0.105 | 0.0637 | – |
| R204V | 0.0685 | 0.0617 | 0.06 | 0.0642 | – | 0.0637 | 0.0755 | 0.085 | 0.0595 | – | 0.0596 | 0.0589 | 0.0635 | 0.084 | 0.0597 | – | – | 0.0673 | 0.0625 |
| L205H | 0.0614 | – | 0.0639 | 0.061 | 0.0497 | 0.0717 | – | – | 0.0876 | – | 0.0542 | – | – | – | – | – | – | 0.0614 | 0.0588 |
| A207K | 0.0548 | – | 0.0643 | 0.0481 | – | – | 0.0757 | – | 0.0581 | – | 0.064 | 0.066 | 0.101 | 0.0724 | – | – | – | – | 0.0648 |
| A207T | 0.0585 | 0.0676 | 0.0707 | 0.0549 | 0.0816 | 0.0492 | – | – | – | 0.0576 | 0.0555 | – | 0.0634 | – | – | 0.0535 | 0.105 | 0.101 | – |
| S209D | 0.101 | 0.0462 | – | – | 0.0569 | 0.0711 | – | 0.0829 | – | – | – | – | – | – | – | – | – | – | – |
| V210N | 0.065 | 0.0519 | 0.042 | 0.0353 | 0.0608 | – | 0.0579 | – | 0.0601 | 0.0628 | 0.0594 | 0.0584 | 0.0718 | 0.0651 | 0.064 | – | – | 0.067 | 0.0637 |
| L211M | 0.0612 | – | 0.0558 | 0.0677 | – | – | 0.0963 | 0.065 | 0.0538 | – | 0.0649 | 0.0655 | 0.0522 | 0.0761 | 0.0517 | 0.0532 | 0.109 | 0.0579 | 0.0694 |
| W212G | 0.0699 | 0.0596 | 0.0653 | 0.0796 | – | – | 0.0527 | – | 0.0512 | 0.0551 | 0.0693 | – | – | – | 0.052 | – | – | 0.062 | 0.0566 |
| G213R | 0.0552 | 0.0661 | 0.055 | 0.0581 | 0.0592 | 0.0691 | 0.0648 | 0.057 | 0.0569 | 0.0591 | 0.0578 | 0.0565 | 0.0665 | 0.0599 | 0.0593 | – | 0.0542 | 0.0602 | 0.0548 |
| G214D | 0 | 0.0655 | 0.0641 | – | 0.0564 | 0.0715 | – | – | 0.0614 | 0.062 | – | 0.0679 | 0.0848 | – | – | 0.0518 | – | 0.0548 | 0.0445 |
| M219W | 0.0592 | – | 0.0575 | 0.061 | 0.063 | 0.0535 | – | – | 0.0614 | 0.0481 | 0.0645 | – | 0.0535 | 0.0799 | – | 0.0632 | 0.116 | – | 0.0532 |
| V220E | 0.0591 | 0.072 | – | 0.0603 | – | 0.0731 | 0.0667 | – | 0.0727 | 0.0602 | 0.0516 | 0.0795 | 0.0617 | 0.12 | – | 0.0553 | – | 0.0706 | 0.0879 |
